# Out of some 310,000 compounds screened, about 2,200 (0.71%) showed an effect of 50% or more. The effect is printed as a negative number. Some of the results follow.
# Target: human ether-à-go-go-related gene (hERG) potassium channel (human, UniProt Q12809)
# Test: primary screen, population patch clamp on CHO cells stably expressing hERG
# Sequence of human ether-à-go-go-related gene (hERG) potassium channel (Q12809 whole entry, looked up): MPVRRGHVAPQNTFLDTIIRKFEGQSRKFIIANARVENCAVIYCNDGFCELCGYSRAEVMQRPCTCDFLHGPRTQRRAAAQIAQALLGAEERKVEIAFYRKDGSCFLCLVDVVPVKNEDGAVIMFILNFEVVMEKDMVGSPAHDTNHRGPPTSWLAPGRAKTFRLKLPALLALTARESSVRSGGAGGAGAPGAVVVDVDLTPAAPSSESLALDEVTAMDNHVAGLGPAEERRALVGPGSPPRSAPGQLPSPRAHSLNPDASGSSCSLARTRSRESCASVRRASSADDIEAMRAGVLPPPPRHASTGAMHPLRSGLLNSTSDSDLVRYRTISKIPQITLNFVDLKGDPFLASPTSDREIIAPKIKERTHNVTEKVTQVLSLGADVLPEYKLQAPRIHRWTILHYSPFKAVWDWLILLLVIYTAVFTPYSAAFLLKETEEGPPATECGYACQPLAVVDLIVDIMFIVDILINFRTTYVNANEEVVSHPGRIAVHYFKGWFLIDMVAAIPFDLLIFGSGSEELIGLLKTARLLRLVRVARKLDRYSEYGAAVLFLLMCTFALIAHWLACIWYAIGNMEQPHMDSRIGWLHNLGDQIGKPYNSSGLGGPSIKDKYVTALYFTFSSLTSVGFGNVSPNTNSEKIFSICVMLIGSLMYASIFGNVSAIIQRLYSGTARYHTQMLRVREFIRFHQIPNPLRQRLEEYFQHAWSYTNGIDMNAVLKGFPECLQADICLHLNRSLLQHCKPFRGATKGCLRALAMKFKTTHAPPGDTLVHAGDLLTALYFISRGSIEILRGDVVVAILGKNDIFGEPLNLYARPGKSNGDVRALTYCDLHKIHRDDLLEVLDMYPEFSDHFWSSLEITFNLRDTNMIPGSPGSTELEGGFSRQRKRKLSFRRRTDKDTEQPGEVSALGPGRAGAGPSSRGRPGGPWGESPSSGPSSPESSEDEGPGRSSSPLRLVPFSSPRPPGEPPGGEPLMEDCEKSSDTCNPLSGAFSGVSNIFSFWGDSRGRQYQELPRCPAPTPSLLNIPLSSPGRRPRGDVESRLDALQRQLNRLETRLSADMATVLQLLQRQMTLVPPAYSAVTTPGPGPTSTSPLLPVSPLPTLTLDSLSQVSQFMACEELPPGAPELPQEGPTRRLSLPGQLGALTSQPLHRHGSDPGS
row,Structure (SMILES),"hERG current change (%, negative = inhibition) at 1uM"
1,O=[N+]([O-])c1ccc(N2CCNCC2)c(S(=O)(=O)N2CCOCC2)c1,28.6%
2,CC(=O)Nc1nc(NC(=O)C(Cl)(Cl)Cl)n(-c2ccccc2)n1,12.2%
3,O=C(c1ccncc1)N1CCN(S(=O)(=O)c2cccc(Cl)c2)CC1,9%
4,CCc1ccc(NC(=O)C(C)OC(=O)CC(NC(C)=O)c2ccccc2)cc1 (stereo not drawn),14.4%
5,COC(=O)c1c(C)oc2ccc(N(C(=O)c3ccncc3)S(=O)(=O)c3ccc(C)cc3C)cc12,11.8%
6,O=C(CN1CCCC1)Nc1ccc(S(=O)(=O)N2CCCCC2)cc1,13.5%
7,O=c1ccnc(S/C=C/c2ccccc2)[nH]1,-5.55%
8,CCCCCCCCCCCCN1[C@@H](CC(C)=O)c2cc(C(F)(F)F)ccc2S1(=O)=O,23%
9,CCOc1ccc2nc(N(CCN(CC)CC)C(=O)c3ccc([N+](=O)[O-])cc3)sc2c1.Cl,-36.2%
10,Cn1c(=O)c2c(ncn2CC(=O)OCC(=O)NNC(=O)c2ccc(Cl)cc2)n(C)c1=O,5.67%
11,Cc1ccc(C)c(NC(=O)c2cnn3ccccc23)c1,10.9%
12,Cc1ccc(/C=N/N2CCN(C3c4ccccc4-c4ccccc43)CC2)s1,7.81%
13,O=C(NC1CCCCC1)N1CCN(c2ccccc2)CC1,2.28%
14,O=C(NNC(=O)c1ccco1)Nc1ccccc1,14.7%
15,CC(C)OC(=O)NCCOC(=O)Nc1ccc(Cl)c(Cl)c1,4.66%
16,O.O=CC(=O)c1ccccc1,15.9%
17,COc1ccc(C2C(C(=O)Nc3cc(OC)c(OC)c(OC)c3)c3ccccc3C(=O)N2C)cc1OC (stereo not drawn),5.82%
18,O=C1NC[C@@H](Cc2cccc3ccccc23)N(CCCCC2CCCCC2)C1=O,12.8%
19,CCOC(=O)C(=Cc1ccc(-c2ccsc2C(=O)OC)o1)C(=O)OCC,-3.24%
20,CCCc1cc(=O)oc2cc(OC(C)C(=O)NC3CC(C)(C)NC(C)(C)C3)ccc12 (stereo not drawn),-3.14%
21,COc1ccc(Br)cc1C(=O)Nc1ccc(O)cc1,9.94%
22,COc1ccccc1-c1c(C)nn2c(N3CCC(C(N)=O)CC3)cc(C)nc12,12.6%

row,Structure (SMILES),"hERG current change (%, negative = inhibition) at 1uM"
1,Cc1nnc(NC(=O)CSc2nnc(CCc3nc4ccccc4[nH]3)n2C)s1,4.25%
2,Cl.c1ccc2c3c([nH]c2c1)CCNC3,8.87%
3,Cl.O=[N+]([O-])c1ccccc1OCC(O)CNC1CCCC1 (stereo not drawn),13%
4,Cc1ccc2c(C)c(C(=O)NCc3ccc(S(N)(=O)=O)cc3)oc2c1C,9.45%
5,O=C(c1ccccc1)c1sc(N2CCCCCC2)nc1-c1ccccc1,8.54%
6,CN(C)c1ccc(/C=N/N2CCN(c3ccccn3)CC2)cc1,11%
7,CC(C)(C)c1ccc(/C([O-])=C(/C(=S)NCc2ccco2)[n+]2ccccc2)cc1,8.38%
8,Cc1ccc(C2=NS(=O)(=O)N(C)C(C(=O)Nc3cc(C)n(CC(=O)N4CCC(C)CC4)n3)=C2)cc1,14%
9,O=C(C[n+]1cc(-c2ccc(Cl)c(Cl)c2)n2c1CCC2)N1c2ccccc2Sc2ccccc21.[Cl-],5.98%
10,O=C1[C@H]2[C@@H](c3ccc(Cl)cc3)N3C(=O)N(c4cccc(Cl)c4)C(=O)[C@@]3(Cc3ccccc3)[C@H]2C(=O)N1C1CCCCC1,6.74%
11,c1ccc(C2=NNC(c3ccco3)=Nc3ccccc32)cc1,9.69%
12,O=C(CSc1nnc(-c2ccncc2)o1)NCc1ccccc1,0.359%
13,Cn1c(N)c(C(=O)COC(=O)C(Cc2ccccc2)NC(=O)c2ccccc2)c(=O)n(C)c1=O (stereo not drawn),-4.58%
14,COc1ccc(CNC(=O)COC(=O)c2[nH]c(C)c(C(C)=O)c2C)cc1OC,2.77%
15,CC1CCCN(C(=O)CCc2nnc(-c3ccc4c(c3)OCO4)o2)C1 (stereo not drawn),6.5%
16,N#CCCN(Cc1cccnc1)C(=O)Nc1ccc(Cl)c(Cl)c1,-0.824%
17,O=C(CN(C(=O)CCC(=O)Nc1nccs1)c1cccc(F)c1)NCCc1ccccc1,-15.9%
18,COc1ccc(S(=O)(=O)Cc2ccc(C(=O)NCc3ccc(C)cc3)o2)cc1,12.9%
19,CCOc1ccc(S(=O)(=O)n2nnc3ccccc32)cc1C,7.15%
20,Nc1cc(=O)[nH]c(SCC(=O)Nc2ccc(Cl)c(Cl)c2)n1,1.55%
21,COc1cc(C)c(C(C)C)cc1S(=O)(=O)n1cnc(C)c1,6.84%
22,COC(=O)c1cc2oc3ccccc3c2n1Cc1ccccn1,9.25%

row,Structure (SMILES),"hERG current change (%, negative = inhibition) at 1uM"
1,COC(=O)C1CCN(C(=O)CN(C)Cc2ccc(C(C)(C)C)cc2)CC1,10.1%
2,Cc1cc(N2CCN(S(=O)(=O)c3ccc(Br)cc3)CC2)n2ncnc2n1,-84.8%
3,Cc1ccc(C)c(C(=O)CN2C(=O)c3ccccc3C2=O)c1,13.1%
4,O=C(CCc1nc2ccccc2n1-c1ccccc1)NCCO,7.34%
5,COC(=O)c1sc(=S)n(Cc2ccccc2)c1C,12%
6,Br.O=C(N/N=C/c1sc(N2CCOCC2)nc1-c1ccccc1)c1cccc(S(=O)(=O)N2CCOCC2)c1,7.08%
7,CC(C)N1C(=O)c2ccccc2C1C(=O)NCCc1ccccc1 (stereo not drawn),10.6%
8,CC(C)NC(=O)CSc1nnc2sc3ccccc3n12,-7.72%
9,COc1ccc(CCN(C)Cc2cccc3ccccc23)cc1OC,-43.6%
10,COc1ccc(C2NC(=S)NC(C)=C2C(=O)Nc2ccccn2)cc1OC (stereo not drawn),17.1%
11,CCN(CC)c1nc(-c2ccccc2)nc2c1sc(=S)n2CC,5.95%
12,Cc1cc(NC(=O)CN2CCN(S(=O)(=O)c3ccc4ccccc4c3)CC2)no1,3.85%
13,CN(Cc1ccccc1)c1nc(N)nc(Cl)c1C=O,5.4%
14,CCCCC1CCC(C(=O)OCC(=O)Nc2ccc(S(N)(=O)=O)cc2)CC1 (stereo not drawn),8.33%
15,Nc1cc(-c2ccco2)no1,-0.355%
16,CCN(CC)CCOC(=O)/C=C/c1ccccc1OC.Cl,9.1%
17,O=C(CSC(=S)N1CCCC1)c1ccccc1,0.497%
18,O=[N+]([O-])c1cc(S(=O)(=O)NC2=NCCCCC2)ccc1Cl,16%
19,O=c1[nH]c(=S)n(-c2ccccc2F)c(O)c1C=Nc1ccc(N2CCOCC2)cc1,11.3%
20,COc1ccc(C)cc1S(=O)(=O)NC1CCCCC1C (stereo not drawn),3.41%
21,Cc1ccc(CNC(=O)c2ccc(Cn3nc(C)cc3C)o2)cc1,-10.9%
22,COc1ccc(C)cc1NC(=O)Cc1c(C(=O)O)n(C)c2ccccc12,17.6%

row,Structure (SMILES),"hERG current change (%, negative = inhibition) at 1uM"
1,CC(Nc1nc(C(F)(F)F)nc2ccccc12)c1cccs1 (stereo not drawn),14.5%
2,COc1ccccc1N(CC(=O)NC(C)(C)C)C(=O)C1CSC(=O)C1 (stereo not drawn),20.6%
3,COCCNC(=O)COc1ccc(C)c(C)c1,0.248%
4,CC(C)c1ccc(N(CC(=O)N/N=C/c2ccc(OC3CSC3)cc2)S(=O)(=O)c2ccccc2)cc1,6.7%
5,Cc1cccc(NC(=O)Cn2c(=O)n(CCc3c[nH]c4ccccc34)c(=O)c3cccnc32)c1,14.6%
6,Cc1cc(N2CCC(C)CC2)c(F)cc1[N+](=O)[O-],-2.8%
7,CCOc1ccccc1NC(=O)CSc1ccc(-c2ccco2)nn1,9.91%
8,O=C(NNC(=S)Nc1ccc(Br)cc1)c1cccnc1,8.63%
9,O=C(CSc1cccc2cccnc12)N/N=C/c1ccc(O)cc1,-13.2%
10,Cc1ccc(CNC(=O)CCCNC(=O)c2ccc(Cl)cc2)n1C,10.7%
11,CC(C)N1CCN(c2ccc(OC[C@H]3CO[C@](Cn4cncn4)(c4ccc(Cl)cc4Cl)O3)cc2)CC1,6.93%
12,O=C(Nc1ccc(NC(=O)C23CC4CC(CC(C4)C2)C3)cn1)c1ccco1,12.1%
13,CCOC(=O)N1CCN(C(=O)COc2cccc3c2CCN(Cc2ccccc2F)C3=O)CC1,-11.9%
14,COC(=O)C[C@H]1c2cc(F)cc(F)c2S(=O)(=O)N1C1CCN(Cc2ccccc2)CC1,-9.69%
15,CCOC(=O)CSc1nnc(CNC(=O)c2ccc([N+](=O)[O-])cc2)n1C,3.61%
16,Cc1cc(C(=O)NC(C)C)on1,13.3%
17,Cc1cc2[nH]c(=O)c(=O)[nH]c2cc1S(=O)(=O)Nc1cccc(F)c1,4.56%
18,CCOC(=O)CSc1nnc(-c2nnc(SCC(=O)OCC)n2CC)n1CC,-8.65%
19,O=C(NCCC(=O)N(CCc1ccccc1)Cc1ccccc1)c1ccc(Br)cc1,-8.05%
20,CC(C)(CO)NC(=O)CC1C(=O)NCCN1CC(c1ccccc1)c1ccccc1 (stereo not drawn),4.15%
21,O=C(Cc1ccccc1)N[C@@H](Cc1ccccc1)c1nc2ccccc2[nH]1,3.31%
